According to PubChem BioAssay AID1345082 (National Center for Advancing Translational Sciences (NCATS), 2018):
Out of some 94,000 compounds screened, about 4,000 (4.3%) were called active. Inconclusive results, whose numbers are uncertain, are shown with a selection of clear calls. The call rests on the fitted dose curve; in most records, active means well fitted inhibition curve with a large enough effect; inconclusive means small, poorly fitted or top-dose-only effect; inactive means no such curve, though single readings can be large or run the other way. Where the call is inconclusive, the potency comes from a doubtful curve fit.

assay: Cytotoxic Profiling in NIH 3T3 Cell Line of Diverse Libraries Using Quantitative High-Throughput Screening; conditions: NIH 3T3 viability, CellTiter-Glo ATP luminescence, 48-72 h; activity change, negative = cytotoxicity: at 96.7 µM (top of the series) unless noted; series mostly up to 96.7 µM; further: nearly all actives have a fitted effect of over 55% in size
In short: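 Cytotoxicity was measured by CellTiter-Glo ATP luminescence after 48 or 72 h compound exposure at 37 °C. Mouse NIH 3T3 fibroblasts were seeded at 400 cells/well and dosed by 23 nL pin transfer.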
On the % scale 0 is the no-effect control and ±100 the full control effect; potency means the concentration at half of the fitted maximal effect; tags describe the fitted curve by direction and shape.

| Compound | activity change, negative = cytotoxicity | Potency | outcome |
| --- | --- | --- | --- |
| CS(=O)(=O)N1CCCN(C(=O)c2ccc(C#N)cc2)CCNC(=O)CC1c1ccccc1 (centres undefined) | inactive: -15.2% | – | – |
| CC(=O)N1CCN(c2ccc3nnc(-c4ccc(C)cn4)n3n2)CC1 | – | inconclusive: 112 µM [inhibitor, single point] | – |
| CCc1ccccc1CN1CCCCC12Cc1ccccc1CNC2=O (centres undefined) | – | inconclusive: 56.2 µM [inhibitor, partial curve, poor fit] | – |
| COc1ccc(CCC(=O)N2CCC[C@H]2c2nc(-c3ccc(OC)cc3)no2)cc1 | – | inconclusive: 70.8 µM [inhibitor, single point] | – |
| Cc1ccc(C(=O)N2CCC3(CC2)N=C(c2cccc(Br)c2)NO3)cc1F | – | inconclusive: 50.1 µM [inhibitor, partial curve, poor fit] | – |
| Cc1onc(-c2cnn(C)c2NCc2ccc(C#N)cc2)c1C(=O)N(C)c1cccnc1 | – | inconclusive: 100 µM [inhibitor, partial curve, poor fit] | – |
| CCCCCC(=O)Nc1nc2c(s1)C[C@@H]1[C@](C)(CO)[C@H](O)CC[C@@]1(C)[C@@H]2CC(=O)NCCOC | inactive: -2.04% | – | – |
| COc1cc(F)ccc1C(C(=O)O)N1CCC(Oc2cccc(F)c2)CC1 (centres undefined) | inactive: -8.28% | – | – |
| CCCN1CCCC2(CCN(C(=O)c3cc(CC)[nH]c(=O)c3)C2)C1=O (centres undefined) | inactive: -3.45% | – | – |
| C#CCNC(=O)c1onc(-c2ccc(Cl)cc2)c1[C@H](C)O | – | inconclusive: 112 µM [inhibitor, partial curve, poor fit] | – |
| Cc1ccccc1C(=O)N1CCn2c(nn(-c3ccncc3)c2=O)C1 | inactive: -22.1% [at 138 µM] | – | – |
| O=C(CN1C(=O)C(c2ccccc2)=NC12CCCCCC2)NC1CCCC1 | inactive: -12.8% | – | – |
| CN(C)C(=O)NC1CCN(Cc2cccc(-c3ccc(F)c(F)c3)c2)CC1 | – | inconclusive: 44.7 µM [inhibitor, partial curve, poor fit] | – |
| O=C(NCc1ccco1)C1CCc2sc(C(=O)N3CCCCCC3)cc2C1 (centres undefined) | – | inconclusive: 44.7 µM [inhibitor, partial curve, poor fit] | – |
| C#CCN(C)C(=O)[C@@H]1CCCN1[C@@H](C(=O)NC)c1ccccc1F | inactive: -15.1% [at 138 µM] | – | – |
| COc1ccc(CN2CC(COc3ccc(OC)cc3)Oc3ncccc3C2=O)cc1 (centres undefined) | – | inconclusive: 12.6 µM [inhibitor, full curve, poor fit] | – |
| O=C(Cc1ccccc1)Nc1cc(-c2ccncc2)nn1-c1ccccc1 | inactive: -29% | – | – |
| COc1cccc(C(=O)N2CCC3(CC2)OCC(C(=O)NC(C)C)N3C(=O)c2ccccc2C)c1 (centres undefined) | – | inconclusive: 79.4 µM [inhibitor, partial curve, poor fit] | – |
| CC(C)c1noc(-c2cccn3c(CNC(=O)c4ccc(Cl)cc4)nnc23)n1 | – | inconclusive: 50.1 µM [inhibitor, partial curve, poor fit] | – |
| CCN1CCN(C(=O)c2nc3sccn3c2-c2ccc(OC)cc2)CC1 | inactive: -2.6% | – | – |
| COc1ccc(CCC(=O)N2CCC(F)(C(=O)N3CCCC3)CC2)cc1 | inactive: -26.5% | – | – |
| CN1CCN(c2nc3c(c(=O)[nH]2)CCN(CC2CCCCC2)CC3)CC1 | inactive: -1.55% | – | – |

| Compound | activity change, negative = cytotoxicity | Potency | outcome |
| --- | --- | --- | --- |
| O=C(O)C[C@@H]1CCN(C(=O)c2ccccc2)C[C@@H]1CCN1C[C@@H]2C[C@H](C1)c1cccc(=O)n1C2 | inactive: 4.04% | – | – |
| Cc1ccc(-c2cc(N3CCC(CNC(=O)c4cc(C5CC5)[nH]n4)CC3)n[nH]2)cc1 | – | inconclusive: 44.7 µM [inhibitor, partial curve, poor fit] | – |
| COc1cccc(CNC(=O)c2cc(-c3ccncc3)cn2C)c1OC | – | inconclusive: 31.6 µM [inhibitor, partial curve, poor fit] | – |
| CC(C)C(=O)N1CCCCCCNC(=O)[C@@H]2C[C@@H](C(=O)NCCc3c[nH]c4ccccc34)C[C@@H]21 | – | inconclusive: 70.8 µM [inhibitor, single point] | – |
| COc1cccc(-c2cn3cc(C(=O)N4CCN(C)CC4)nc3s2)c1 | – | inconclusive: 50.1 µM [inhibitor, partial curve, poor fit] | – |
| COc1ccc(CC(=O)N2CCC(N3C(=O)c4c(c(C)nn4-c4ccccc4)C3C3CC3)C2)cc1 (centres undefined) | – | inconclusive: 22.4 µM [inhibitor, partial curve] | – |
| c1ccc(CN2CC(N3CCc4ccccc43)C2)cc1 | – | inconclusive: 100 µM [inhibitor, partial curve, poor fit] | – |
| O=C(NCc1nnc2c(-c3nc(C4CC4)no3)cccn12)c1c[nH]c2ccccc12 | – | inconclusive: 50.1 µM [inhibitor, partial curve, poor fit] | – |
| COc1ccc(C(=O)N2CCC(n3cc(-c4nc(-c5ccccc5)no4)nn3)C2)cc1F (centres undefined) | inactive: -25.8% | – | – |
| COc1ccc(-c2noc([C@@H]3C[C@H](NS(=O)(=O)c4ccccc4)CN3C)n2)cc1 | – | inconclusive: 79.4 µM [inhibitor, partial curve, poor fit] | – |
| COc1ccc(C2Cn3nnc(C(=O)N4CCN(C(=O)c5cccc(F)c5)CC4)c3CO2)cc1 (centres undefined) | – | inconclusive: 50.1 µM [inhibitor, partial curve, poor fit] | – |
| Cc1cn2nnc(C(=O)N3CCC(C(=O)Nc4cccc(C(C)C)c4)CC3)c2c(=O)[nH]1 | – | – | inactive |
| Cc1nnc(-c2cc(-c3cccc(OC(F)(F)F)c3)ccn2)n1CCN1CCOCC1 | – | inconclusive: 56.2 µM [inhibitor, partial curve, poor fit] | – |
| CNC(=O)c1cc(C)nc2onc(C3CCCN(C(=O)c4ccccc4C)C3)c12 (centres undefined) | inactive: -8.01% | – | – |
| Cc1cn2nc(C(=O)NCCc3ccccc3)cc2c(N2CCCC2)n1 | – | inconclusive: 50.1 µM [inhibitor, partial curve, poor fit] | – |
| COc1ccc(CN2CCn3c(nn(-c4ccc([N+](=O)[O-])cc4)c3=O)C2)cc1 | – | inconclusive: 28.2 µM [inhibitor, partial curve, poor fit] | – |
| COc1cccc(CN2CC(O)CN(C(=O)OCC(C)C)CC2=O)c1OC (centres undefined) | – | inconclusive: 50.1 µM [inhibitor, partial curve, poor fit] | – |
| O=C(N1CCC(Cc2nc(-c3ccc(F)cc3)no2)CC1)C1(c2ccccc2)CC1 | – | inconclusive: 44.7 µM [inhibitor, partial curve, poor fit] | – |
| COc1cccc(NC(=O)O[C@@H]2CO[C@H]3[C@@H]2OC[C@@H]3Nc2nccc(-c3cccs3)n2)c1 | – | inconclusive: 22.4 µM [inhibitor, partial curve, poor fit] | – |
| C=CCN(Cc1cccc(OC)c1)C(=O)c1ccccc1C#N | – | inconclusive: 31.6 µM [inhibitor, full curve] | – |
| O=C(Cc1ccc(F)cc1)Nc1ccc(-c2nnc3n2CCCC3)cc1 | inactive: -16.4% | – | – |
| Cc1noc([C@@H](C)NC(=O)c2cc(C)n(C)n2)c1C(=O)O | inactive: -27.3% [at 174 µM] | – | – |

| Compound | activity change, negative = cytotoxicity | Potency | outcome |
| --- | --- | --- | --- |
| Cc1ccc(C2Cn3nnc(C(=O)N4CCC(C(=O)NC(C)C)CC4)c3CO2)cc1 (centres undefined) | – | – | inactive |
| CCn1cc(-c2ccccc2)cc1C(=O)O | – | – | inactive |
| CO[C@H]1C(=O)N(C)C2(CCN(C(=O)OCc3ccccc3)CC2)[C@@H]1C(=O)Nc1ccccc1 | inactive: -17.8% | – | – |
| OC1(CN2CCN(c3ccc(F)c(Cl)c3)CC2)CCCNC1 (centres undefined) | – | inconclusive: 50.1 µM [inhibitor, partial curve, poor fit] | – |
| OC[C@@H]1CNC[C@H]1C1CCN(Cc2ccc(OC(F)(F)F)cc2)CC1 | – | inconclusive: 44.7 µM [inhibitor, partial curve, poor fit] | – |
| CCc1nc(-c2c3n(c(=O)n(CC(=O)Nc4ccc(Cl)cc4)c2=O)CCCC3)no1 | – | inconclusive: 50.1 µM [inhibitor, partial curve, poor fit] | – |
| COc1ccc(NC(=O)C2=NO[C@@H]3CN(c4cccnc4)C[C@H]23)cc1 | – | inconclusive: 56.2 µM [inhibitor, partial curve, poor fit] | – |
| CCc1ccc(N2CC(c3noc(-c4cc(Cl)ccc4F)n3)CC2=O)cc1 (centres undefined) | – | inconclusive: 44.7 µM [inhibitor, partial curve, poor fit] | – |
| COc1ccccc1Nc1ccnc(N2CCCC(C(=O)NCc3cccc(F)c3)C2)n1 (centres undefined) | – | active: 12.6 µM | – |
| COc1ncccc1-c1ncc2c(n1)OCCN(c1cccc(C(F)(F)F)c1)C2=O | – | active: 25.1 µM | – |
| COc1ccc(CNC(=O)C2Cn3cccc3C(=O)N2Cc2ccccc2)cc1OC (centres undefined) | – | inconclusive: 50.1 µM [inhibitor, partial curve, poor fit] | – |
| COc1ccc(CCN2Cc3cc(NC(=O)c4ccccc4OC)ccc3OCC2=O)cc1 | – | inconclusive: 7.08 µM [inhibitor, full curve, poor fit] | – |
| Cc1ccc(C(=O)N2CCc3[nH]nc(C(=O)NCCCc4ccccc4)c3C2)cc1C | – | inconclusive: 50.1 µM [inhibitor, partial curve, poor fit] | – |
| COc1cc(F)ccc1-c1cc(C(=O)NCc2cccnc2)c2c(c1)N(C)CCO2 | – | inconclusive: 56.2 µM [inhibitor, partial curve, poor fit] | – |
| O=C(Nc1ccc(Cl)cc1Cl)N1CCc2[nH]c3ccc(F)cc3c2C1 | – | inconclusive: 44.7 µM [inhibitor, partial curve, poor fit] | – |
| COc1ccc(-c2ccccc2C(=O)N2CCC(NC(=O)Cc3ccc(F)cc3)CC2)nn1 | inactive: -4.48% | – | – |
| COC(=O)c1cn([C@H]2CO[C@H]3[C@@H]2OC[C@@H]3NC(=O)c2ccc(N(C)C)cc2)nn1 | inactive: -26% [at 138 µM] | – | – |
| CN(CCO)CC1(O)CCCN(Cc2ccccc2F)C1=O (centres undefined) | inactive: -10.2% | – | – |
| CC(C)C(=O)N1CCC2(CC1)OC(=O)N(Cc1ccccc1)C2(C)c1cccnc1 (centres undefined) | – | active: 20 µM | – |
| O=C(NCc1cccs1)c1nc(-c2ccc(F)cc2)c2ccccn12 | – | inconclusive: 44.7 µM [inhibitor, partial curve, poor fit] | – |
